Results reported in PubChem BioAssay AID1476 (National Center for Advancing Translational Sciences (NCATS), 2009).
About 4,500 (2.2%) of roughly 200,000 compounds were called active. The shares of active, inactive and inconclusive entries below differ from those in the screen. The call rests on the fitted dose curve; in most records, active means well fitted inhibition curve with a large enough effect; inconclusive means small, poorly fitted or top-dose-only effect, or effect the other way; inactive means flat fitted curve, though single readings scatter. Potencies of inconclusive entries are doubtful fits and often do not repeat.

Each compound was assayed against Cruzipain (Trypanosoma cruzi) (UniProt P25779) (assay: qHTS Assay for Promiscuous and Specific Inhibitors of Cruzain (without detergent)). Settings: purified cruzain, Z-FR-AMC fluorescence, no detergent.
Sequence of UniProt P25779 (P25779 whole entry, looked up): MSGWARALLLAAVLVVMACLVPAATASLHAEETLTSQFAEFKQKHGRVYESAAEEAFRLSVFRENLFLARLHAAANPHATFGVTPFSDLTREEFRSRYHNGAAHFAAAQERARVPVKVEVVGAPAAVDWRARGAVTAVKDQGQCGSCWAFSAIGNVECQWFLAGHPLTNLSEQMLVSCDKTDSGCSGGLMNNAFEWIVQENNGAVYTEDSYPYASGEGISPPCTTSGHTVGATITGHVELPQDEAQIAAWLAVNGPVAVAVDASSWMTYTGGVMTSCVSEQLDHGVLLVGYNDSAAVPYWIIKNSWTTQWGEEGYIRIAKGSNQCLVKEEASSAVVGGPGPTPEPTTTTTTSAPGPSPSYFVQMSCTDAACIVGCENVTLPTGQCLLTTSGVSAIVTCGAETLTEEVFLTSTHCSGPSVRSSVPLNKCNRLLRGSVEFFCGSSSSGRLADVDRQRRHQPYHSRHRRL
Procedure, shortened: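 Purified cruzain at 1.5 nM, pre-incubated 15 min with compound at room temperature in 100 mM sodium acetate pH 5.5, 5 mM DTT, 0.00005% Triton X-100. Reaction started with 2 uM Z-FR-AMC; AMC fluorescence increase over 60 s gives rate.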
Further: nearly all actives have a fitted effect of over 40% in size.
Potency means the concentration at half of the fitted maximal effect; tags describe the fitted curve by direction and shape.
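Wherever max response, negative = inhibition is given: plate controls were enzyme without inhibitor for no effect and buffer without enzyme for full effect.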

Row | SMILES | Potency | max response, negative = inhibition
1 | Cc1ccc(-c2nnn(CC(=O)NC3CCCc4ccccc43)n2)cc1 (stereo unspecified) | inconclusive: 25.1 µM [inhibitor, single point] | –
2 | COc1ccc(/C(N)=N/OC(=O)c2ccc(C)c([N+](=O)[O-])c2)cc1OC | inconclusive: 39.8 µM [activator, single point] | –
3 | Cc1ccc(/C=N/N2CCN(C3c4ccccc4-c4ccccc43)CC2)s1 | inconclusive: 39.8 µM [inhibitor, single point] | –
4 | COc1ccc(-c2nc(SCC(=O)NCC3CCCO3)c(-c3ccc(C)cc3)[nH]2)cc1OC (stereo unspecified) | inconclusive: 39.8 µM [activator, single point] | –
5 | Cc1cc(C)n(-c2ccc(C(=O)OCC(=O)N(CC(C)C)C3CCS(=O)(=O)C3)cc2)n1 (stereo unspecified) | inconclusive: 31.6 µM [activator, single point] | –
6 | COc1ccc2cc3c(N)c(C(=O)N4CCCC4)sc3nc2c1 | inconclusive: 39.8 µM [activator, single point] | –
7 | COCCCNS(=O)(=O)c1ccc(Oc2ncc(C(F)(F)F)cc2Cl)cc1 | inconclusive: 31.6 µM [activator, single point] | –
8 | CC(CC(=O)N1CCN(c2ccccc2F)CC1)c1ccccc1 (stereo unspecified) | – | inactive: 0.325%
9 | Cc1cc2ccccc2n1CCNC(=O)C1CCCCC1 | – | inactive: 0.34%
10 | COc1ccc(Cc2nnc(NC(=O)c3c(-c4ccccc4)noc3C)s2)cc1OC | inconclusive: 39.8 µM [activator, single point] | –
11 | O=C(NCc1ccc(Cl)cc1)c1cc2cccc3c2n1CCS3 | inconclusive: 31.6 µM [inhibitor, single point] | –
12 | Cc1cc2ccccc2n1CCNC(=O)c1cccs1 | inconclusive: 25.1 µM [inhibitor, single point] | –
13 | S=C1NCCOCCOCCOCCNC(=S)NCCOCCOCCOCCN1 | inconclusive: 31.6 µM [activator, single point] | –
14 | COc1ccc(CNC(=O)C2CCN(C(=O)N3CCOc4ccc(C)cc43)CC2)cc1 | inconclusive: 31.6 µM [activator, single point] | –
15 | Cc1ccc2nc(N/N=C\c3ccc([N+](=O)[O-])o3)nc(-c3ccccc3)c2c1 | inconclusive: 39.8 µM [inhibitor, single point] | –
16 | O=S(=O)(c1ccc(-c2nc3ccccc3s2)cc1)N1CCCC1 | active: 25.1 µM | –
17 | Cc1nc2cc3ccccc3cc2c(=O)[nH]1 | inconclusive: 39.8 µM [inhibitor, single point] | –
18 | CCn1nc(C(=O)Nc2ccc(S(=O)(=O)Nc3nccs3)cc2)c2ccccc2c1=O | inconclusive: 39.8 µM [activator, single point] | –
19 | CC(C)NC(=O)N1CC2(CCN(C(=O)c3cc(C(F)(F)F)cc(C(F)(F)F)c3)CC2)C1 | inconclusive: 31.6 µM [activator, single point] | –
20 | Cc1nc2cc(C(F)(F)F)ccc2n1C1CCN(Cc2nnnn2CCc2ccccc2)CC1 | inconclusive: 12.6 µM [activator, partial curve] | –
21 | COc1ccc2c(c1)c(=O)oc1cc(OCC(=O)NC3CCCCC3)ccc12 | inconclusive: 31.6 µM [activator, single point] | –

Row | SMILES | Potency | max response, negative = inhibition
22 | Cc1cccc(-n2c(/C=C/c3ccccc3O)nc3ccccc3c2=O)c1 | inconclusive: 25.1 µM [inhibitor, single point] | –
23 | O=c1c2sc3ccccc3c2n(Cc2cccc(Cl)c2)c(=O)n1Cc1ccc(F)cc1 | active: 6.31 µM | –
24 | CC1CCN(S(=O)(=O)c2ccc3c(c2)N(CC(=O)N(C)Cc2ccccc2)C(=O)CO3)CC1 | inconclusive: 31.6 µM [activator, single point] | –
25 | CCN(CC)c1cc(NC2CCCCC2)c2c3c(onc13)-c1ccccc1C2=O | inconclusive: 39.8 µM [activator, single point] | –
26 | COc1ccc(NC(=O)/C(C#N)=C/c2ccc(OCc3ccccc3F)cc2)cc1 | active: 3.98 µM | –
27 | COc1ccc(-c2ccc(-c3nc4c(c(=O)[nH]c(=O)n4Cc4ccccc4)n3C)o2)c([N+](=O)[O-])c1 | inconclusive: 7.94 µM [inhibitor, single point] | –
28 | Cn1cnc(S(=O)(=O)N2CCC(C(=O)Nc3ccc(OC(F)(F)F)cc3)CC2)c1 | – | inactive: 7.45%
29 | O=C(c1cc2n(n1)C(C(F)(F)F)CC(c1ccc(F)cc1)N2)N1CCCC1 (stereo unspecified) | inconclusive: 31.6 µM [activator, single point] | –
30 | O=C(Nc1cccc(C(F)(F)F)c1)c1ccc2nc(-c3ccco3)c(-c3ccco3)nc2c1 | inconclusive: 3.16 µM [inhibitor, partial curve] | –
31 | CCN(CC)c1ccc(/C=N/N2CCN(Cc3cccc4ccccc34)CC2)c(O)c1 | inconclusive: 39.8 µM [inhibitor, single point] | –
32 | CCCCCCCCCCCCCCSCC(=O)O | inconclusive: 20 µM [activator, partial curve] | –
33 | CCOc1ccc(CCNC(=O)c2cc3n(n2)CCCN(Cc2ccc(C)cc2)C3=O)cc1OCC | inconclusive: 39.8 µM [activator, single point] | –
34 | CNC(=S)N1N=C(c2ccccc2)CC1c1ccc(Br)cc1 (stereo unspecified) | inconclusive: 31.6 µM [inhibitor, single point] | –
35 | Cc1ccc(NP(=O)(c2ccc(N(C)C)cc2NC(=O)c2cccs2)N2CCOCC2)cc1 (stereo unspecified) | inconclusive: 39.8 µM [activator, single point] | –
36 | Cc1ccccc1Cn1c(=O)n(-c2ccccc2)c(=O)c2ccc(C(=O)NCc3ccco3)cc21 | inconclusive: 20 µM [inhibitor, single point] | –
37 | CCc1ccc(N(CC(=O)Nc2nc3ccc(C)cc3s2)S(=O)(=O)c2c(C)noc2C)cc1 | inconclusive: 39.8 µM [inhibitor, single point] | –
38 | CCCN1CCN(c2ncnc3sc(C(=O)Nc4ccc(OC(F)(F)F)cc4)c(C)c23)CC1 | – | inactive: 29.4%
39 | O=C(CCCN1C(=O)/C(=C\c2ccco2)SC1=S)Nc1ccc2ccccc2c1 | inconclusive: 39.8 µM [inhibitor, single point] | –
40 | COc1ccc(-n2nnnc2SCC(=O)c2ccc(OC)c(OC)c2)cc1 | inconclusive: 31.6 µM [activator, single point] | –
41 | COc1ccc(-c2nnn(CC(=O)N(Cc3ccco3)C(C(=O)NCC3CCCO3)c3ccco3)n2)cc1 (stereo unspecified) | inconclusive: 39.8 µM [activator, single point] | –
42 | COc1ccc(-c2nnc(Nc3nc4c(OC)cccc4s3)o2)c(OC)c1 | inconclusive: 25.1 µM [activator, partial curve] | –

Row | SMILES | Potency | max response, negative = inhibition
43 | COc1ccccc1CNC(=O)c1cc2cccc3c2n1CCS3 | active: 25.1 µM | –
44 | COc1ccc(-c2nc(CSCC(=O)NCCc3ccc(OC)c(OC)c3)c(C)o2)cc1 | inconclusive: 31.6 µM [activator, single point] | –
45 | Cc1ccc(/C=C/C(=O)NC2CCCCCCC2)o1 | active: 20 µM | –
46 | CC(=O)c1nn(-c2cccc(Br)c2)cc1C(=O)c1ccc(Br)cc1 | active: 12.6 µM | –
47 | COc1ccc(C(C(=O)NC(C)(C)C)N(C(=O)CNC(=O)c2cccs2)c2ccc(C)cc2)cc1OC (stereo unspecified) | inconclusive: 39.8 µM [activator, single point] | –
48 | CCOC(=O)C1=C(N)Oc2cc(C)oc(=O)c2C12C(=O)N1c3c(cccc32)C(C)=CC1(C)C (stereo unspecified) | inconclusive: 39.8 µM [activator, single point] | –
49 | CCc1c(C)nc(Nc2nc(C)c3cc(OC)ccc3n2)[nH]c1=O | inconclusive: 31.6 µM [activator, single point] | –
50 | COc1ccc(C2C(C(=O)Nc3cccnc3)=C(C)Nc3nc(-c4ccc(OC)c(OC)c4)nn32)cc1 (stereo unspecified) | inconclusive: 39.8 µM [activator, single point] | –
51 | Cc1cc(Cl)ccc1NC(=O)CCS(=O)(=O)c1ccc2c(c1)CC(C)N2C(=O)C1CC1 (stereo unspecified) | – | inactive: 22.1%
52 | Cc1ccc(S(=O)(=O)N(C)Cc2ccc(C(=O)N/N=C/c3ccc(OC(F)F)cc3OC(F)F)cc2)cc1 | inconclusive: 39.8 µM [inhibitor, single point] | –
53 | CCOc1ccc2nc(N(Cc3cccnc3)C(=O)c3ccco3)sc2c1 | inconclusive: 31.6 µM [activator, single point] | –
54 | CCOC(=O)O[C@]1(C(=O)COC(=O)CC)CC[C@@H]2[C@@H]3CCC4=CC(=O)C=C[C@@]4(C)[C@H]3[C@H](O)C[C@]21C | inconclusive: 15.8 µM [activator, single point] | –
55 | Cc1cc(C)n(-c2nnc(C)n2/N=C/c2ccccc2OCc2ccccc2Cl)n1 | inconclusive: 31.6 µM [activator, single point] | –
56 | CCOc1ccccc1N(CC)C(=O)Cn1ncc2c1-c1ccccc1OC2 | – | inactive: 18.1%
57 | CCOc1ccc(NC(=O)CSc2nc(-c3ccccc3)c3cc(OCC)ccc3n2)cc1 | – | inactive: -7.28%
58 | COC(=O)c1c(C(=O)OC)c2cc(C(=O)c3ccccc3)ccn2c1Cl | inconclusive: 39.8 µM [activator, single point] | –
59 | CCOc1cccc(CC(=O)NCc2ccc3c(c2)CCN3C(=O)c2cccc(C)c2)c1OCC | inconclusive: 25.1 µM [activator, single point] | –
60 | COc1cc(NS(=O)(=O)c2ccc(NC(=O)COc3ccc(Cl)cc3Cl)cc2)nc(OC)n1 | inconclusive: 3.98 µM [activator, full curve] | –
61 | CCN(C(=O)COC(=O)c1cccnc1Nc1ccccc1F)C1CCS(=O)(=O)C1 (stereo unspecified) | inconclusive: 39.8 µM [activator, single point] | –
